Here are results for 28 molecules from the antibiotic and cytotoxicity screens of Wong et al. (2023).

The subject of test [1] is HSkMC (human skeletal muscle cells). Nature of the test: cytotoxicity call (relative viability < 0.9). Conditions: 10 µM.
Test [2] concerns HepG2. Nature of the test: cytotoxicity call (relative viability < 0.9). Conditions: 10 µM.
For test [3], the system named is S. aureus RN4220. Nature of the test: growth inhibition call (relative growth <= 0.2). The settings on record: 50 µM.

The structures appear in SMILES notation. The list shows a part of the results.

Take `CN1C(C(=O)Nc2ccccn2)=C(O)c2sc(Cl)cc2S1(=O)=O`: the cytotoxicity call in test [1] and in test [2] was “inactive” each time. Further, the growth inhibition call in test [3] was “inactive”.
In the case of `CCC(=O)N[C@@H]1CC[C@@H](CC(=O)OC)O[C@H]1CO`, the cytotoxicity call in test [1] and in test [2] was “inactive” each time. In addition, the growth inhibition call in test [3] is “inactive”.
Consider `COc1cccc(S(=O)(=O)N(C)C[C@H]2OCc3cnnn3CCCC(=O)N([C@@H](C)CO)C[C@@H]2C)c1`, for which the cytotoxicity call in test [1] and in test [2] was “inactive” each time. In addition, in test [3], the growth inhibition call was “inactive”.
With `C[C@H]1CCCCO[C@H](CN(C)C(=O)C2CCCCC2)[C@@H](C)CN([C@@H](C)CO)C(=O)c2cc(NS(=O)(=O)c3ccc(F)cc3)ccc2O1`, the cytotoxicity call in test [1] and in test [2] was “inactive” throughout. Further, in test [3], the growth inhibition call was “inactive”.
Turning to `Cc1noc(C)c1NC(=O)N(C)C[C@@H]1Oc2ccc(NS(C)(=O)=O)cc2CC(=O)N([C@@H](C)CO)C[C@H]1C`, the cytotoxicity call in test [1] and in test [2] was “inactive” in each case. Also, the growth inhibition call in test [3] was “inactive”.
For `COc1ccc(NC(=O)N(C)C[C@@H]2OCCCC[C@H](C)Oc3ccc(NS(=O)(=O)c4ccc(F)cc4)cc3C(=O)N([C@@H](C)CO)C[C@@H]2C)cc1`, the cytotoxicity call in test [1] and in test [2] was “inactive” throughout. For the same molecule, the growth inhibition call in test [3] was “inactive”.
`C[C@H]1CN([C@@H](C)CO)C(=O)c2cccc(NC(=O)CCCCCC(=O)Nc3ccccc3N)c2O[C@@H]1CN(C)C(=O)Nc1ccccc1`: the cytotoxicity call in test [1] and in test [2] was “inactive” throughout. Also, the growth inhibition call in test [3] was “inactive”.
Regarding `C[C@@H]1CCCCO[C@H](CN(C)C(=O)c2ccccc2)[C@H](C)CN([C@@H](C)CO)C(=O)c2cc(NC(=O)Nc3ccc(C(F)(F)F)cc3)ccc2O1`, the cytotoxicity call in test [1] is “inactive”. Besides, the cytotoxicity call in test [2] is “active”. The growth inhibition call in test [3] is “inactive”.
With `C[C@@H]1CCCCO[C@@H](CN(C)C(=O)Nc2ccccc2)[C@H](C)CN([C@H](C)CO)C(=O)c2cc(NC(=O)C3CCCCC3)ccc2O1`, the cytotoxicity call in test [1] and in test [2] was “inactive” in each case. The growth inhibition call in test [3] was “inactive”.
With `O=C(O)c1cc2cc(Cl)ccc2[nH]1`, the cytotoxicity call in test [1] and in test [2] was “inactive” each time. Moreover, in test [3], the growth inhibition call is “inactive”.
Turning to `C[C@@H]1CN([C@@H](C)CO)C(=O)Cc2cc(NC(=O)CCC(F)(F)F)ccc2O[C@@H]1CN(C)C(=O)Nc1ccc(C(F)(F)F)cc1`, the cytotoxicity call in test [1] and in test [2] was “inactive” in each case. Also, the growth inhibition call in test [3] was “inactive”.
For the molecule `NCCCS(=O)(=O)O`, the cytotoxicity call in test [1] and in test [2] was “inactive” each time. The growth inhibition call in test [3] was “inactive”.
On to `CNC(=O)c1c(C)noc1C`, for which the cytotoxicity call in test [1] and in test [2] was “inactive” throughout. The growth inhibition call in test [3] was “inactive”.
Consider `Cc1noc(C)c1NC(=O)N(C)C[C@H]1Oc2ccc(NC(=O)c3ccncc3)cc2C(=O)N([C@H](C)CO)C[C@@H]1C`, for which, in test [1], the cytotoxicity call is “inactive”. Further, the cytotoxicity call in test [2] was “active”. Further, the growth inhibition call in test [3] is “inactive”.
Regarding `CO[C@H]1CN(C)C(=O)c2ccc(NC(=O)Nc3cccc(F)c3)cc2OC[C@@H](C)N(C(=O)Nc2c(C)noc2C)C[C@H]1C`, the cytotoxicity call in test [1] and in test [2] was “inactive” throughout. In test [3], the growth inhibition call is “inactive”.
`CC(C)NC(=O)Nc1cccc2c1O[C@@H](CN(C)Cc1ccc(-c3ccccc3)cc1)[C@@H](C)CN([C@@H](C)CO)C2=O`: the cytotoxicity call in test [1] and in test [2] was “inactive” each time. Moreover, the growth inhibition call in test [3] was “inactive”.
As to `CCCCc1oc2ccccc2c1C(=O)c1cc(I)c(OCCN(CC)CC)c(I)c1.Cl`, the cytotoxicity call in test [1] is “inactive”. Further, the cytotoxicity call in test [2] was “active”. Also, in test [3], the growth inhibition call is “inactive”.
For the molecule `CC(=O)Oc1cc(C(C)C)c(OCCN(C)C)cc1C.Cl`, the cytotoxicity call in test [1] and in test [2] was “inactive” in each case. Further, the growth inhibition call in test [3] was “inactive”.
Turning to `Cc1cc(C(=O)Nc2cccc3c2O[C@H](CN(C)Cc2ccncc2)[C@H](C)CN([C@@H](C)CO)C3=O)n(C)n1`, the cytotoxicity call in test [1] and in test [2] was “inactive” each time. Besides, in test [3], the growth inhibition call was “inactive”.
Consider `COc1ccc(CN(C)C[C@H]2Oc3ccc(NC(=O)CCCCCC(=O)Nc4ccccc4N)cc3CC(=O)N([C@H](C)CO)C[C@H]2C)cc1`, for which the cytotoxicity call in test [1] and in test [2] was “inactive” throughout. The growth inhibition call in test [3] is “inactive”.
For `C[C@H]1CN([C@@H](C)CO)C(=O)c2cccc(NC(=O)Nc3ccccc3)c2O[C@@H]1CN(C)Cc1ccc(C(=O)Nc2ccccc2N)cc1`, the cytotoxicity call in test [1] and in test [2] was “inactive” throughout. For the same molecule, the growth inhibition call in test [3] was “inactive”.
Take `Cc1noc(C)c1NC(=O)Nc1ccc2c(c1)C(=O)N([C@H](C)CO)C[C@H](C)[C@@H](CN(C)S(=O)(=O)c1ccc(F)cc1)OCCCC[C@H](C)O2`: the cytotoxicity call in test [1] and in test [2] was “inactive” each time. Moreover, in test [3], the growth inhibition call is “inactive”.
Turning to `C/C=C/c1ccc2c(c1)O[C@H](CN(C)C(=O)c1ccc3c(c1)OCO3)[C@@H](C)CN([C@@H](C)CO)S2(=O)=O`, the cytotoxicity call in test [1] and in test [2] was “inactive” each time. Further, the growth inhibition call in test [3] is “inactive”.
Turning to `C[C@@H]1CN([C@@H](C)CO)C(=O)Cc2cc(NC(=O)CCN3CCOCC3)ccc2O[C@H]1CN(C)Cc1ccc2c(c1)OCO2`, the cytotoxicity call in test [1] and in test [2] was “inactive” each time. Further, the growth inhibition call in test [3] was “inactive”.
Consider `Cc1noc(C)c1NC(=O)Nc1ccc2c(c1)C(=O)N([C@@H](C)CO)C[C@H](C)[C@H](CN(C)C(=O)C1CCCCC1)OCCCC[C@H](C)O2`, for which the cytotoxicity call in test [1] and in test [2] was “inactive” each time. Moreover, the growth inhibition call in test [3] is “inactive”.
In the case of `C[C@@H]1CCCCO[C@@H](CN(C)S(=O)(=O)c2ccc(F)cc2)[C@H](C)CN([C@H](C)CO)C(=O)c2cc(NC(=O)Cc3ccccc3)ccc2O1`, the cytotoxicity call in test [1] and in test [2] was “inactive” each time. Besides, the growth inhibition call in test [3] was “inactive”.
For the molecule `O=C(C1=C[C@@H](c2ccc(C(F)(F)F)cc2)C[C@@H](OCc2ccc(CO)cc2)O1)N1CCN(Cc2ccccc2)CC1`, the cytotoxicity call in test [1] and in test [2] was “inactive” in each case. For the same molecule, in test [3], the growth inhibition call was “inactive”.
On to `C[C@H](CO)N1C[C@H](C)[C@@H](CN(C)C(=O)C2CCCCC2)OCCCC[C@H](C)Oc2ccc(NC(=O)c3ccncc3)cc2C1=O`, for which the cytotoxicity call in test [1] and in test [2] was “inactive” throughout. Moreover, in test [3], the growth inhibition call is “inactive”.
